These results are taken from the supplement of paper PMC11417369.

The list shows a part of the results.

In the test the test system is PfSIP2 AP2 domain 1 (GST-tagged). The test can be described thus: gcPBM binding intensity (ln(normalized median fluorescence intensity)); higher = stronger DNA binding. Summed up: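 Each value is the highest Masliner-normalised natural-log median intensity across replicate spots of either orientation of a probe. The probes were primer-extended double-stranded 36-bp intergenic genomic sequences on an Agilent 4 × 180k array, alongside negative controls, exposed for 1 h to GST-tagged P. falciparum DNA-binding domains expressed in E. coli. Bound protein was picked up with Alexa488 anti-GST antibody and scanned at 488 nm.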
“TTTAATATAACTATTTGTACATAAAGAATATAAATA [XGTACX_site4594]”: the “gcPBM binding intensity (ln)” value amounted to 7.01. Under “TAAATTTTTATTTGTAGTACTATATATATATATATA [XGTACX_site1026]” stands 8.96. The figure for “TTTTTTTGCCATATTACACACACACGGGTAAACCCC [CACACA_site6874]” is 7.23. The figure for “TAATGAAAATATATAACACACAAAAGTTATAAATAT [CACACA_site1189]” is 6.83; for “GTGTTGAATTATGTGCTTTTTTCTTTCTACTCAGTA [XGTACX_negctrl_site464]” it is 7.49. Regarding “ATACATCGTATATAAGTGCATATTAAGGTCTTAAGA [GTGCAC_site9560]”, the “gcPBM binding intensity (ln)” value worked out at 8.11. “GAACATTTGAAATATGCACACATGTATAAACATACA [CACACA_site5463]”: the “gcPBM binding intensity (ln)” value was found to be 7.39. Take “TATATATGTATCAAGTGTACAGTTTTAAAAAAAAAA [XGTACX_site6011]”: the “gcPBM binding intensity (ln)” value amounted to 7.08. Under ACACACAATACAAAAGTGCATATAATAATTAATCAT stands 8.76; under “TATTTCATTAATGTCACTTTGAAAGAAATGAAAAAA [CACACA_negctrl_site1803]”, 6.95.

“AAAAAAAAAAGACACACACACAAAATAAACAAACAA [CACACA_site7308]”: the “gcPBM binding intensity (ln)” value worked out at 6.88. Under “TGTTTTTAAAAAAAAAAAAAATCACACCGGCAGGTA [CACACA_negctrl_site1437]” stands 6.65; under “TGCGTATATATATACACACACATATATATATTTTAA [CACACA_site1952]”, 7; under TATTGACATATATTAGTGCAATAATGAAATCAAGTA, 7.96. The figure for “CATATTATTCTTTTCACACACGCGTTAATAATAATC [CACACA_site3931]” is 7.15; for “AAAAAAAAAAAAAACACACACATACAGACAAAAATG [CACACA_site83]” it is 7.26. Under CTAAATTATAGATCAGTGCAATTTAATATGAGTCCA stands 7.57; under “TTGTAATTATTAAACACACACAAAATATATATAATA [CACACA_site2523]”, 7.16. As for “CCATAAAAATATAATACACACATATATATTAACATA [CACACA_site4102]”, the “gcPBM binding intensity (ln)” value came to 7.

Turning to “AGGTGAGCTCAGACTACACACACAAAGAAAAAAATA [CACACA_site8439]”, the “gcPBM binding intensity (ln)” value stood at 6.8.

For “TAAACATAATATTTAACACACATGAAGATGTATATT [CACACA_site1036]”, the “gcPBM binding intensity (ln)” value worked out at 6.64. For the sequence “ATAAATATTTACAAAAGTACACATAACTTTAGATAT [XGTACX_site1685]”, the “gcPBM binding intensity (ln)” value was found to be 6.88. Under “GTTTTGGCTAACTATTCACACATTAAAATATTACCA [CACACA_site5016]” stands 7.1. Under “CACCATGATACATACACACAGACATATACGCATTCA [CACACA_site1008]” stands 7.11; under “ACAATCCACAGGGGCGCACACATATAAGCAGTATAT [CACACA_site3817]”, 7.79; under “AAAAAATTAATAAAAACACACAAAAAAAATAAACAA [CACACA_site1907]”, 6.89. On to “TTTGTTGTTTGGAGATGTACATATTTTACACTTTTT [XGTACX_site5965]”, for which the “gcPBM binding intensity (ln)” value is 6.89. Consider “ATTTCACAGAGACACACACACAATATATTTCCTTTT [CACACA_site7773]”, for which the “gcPBM binding intensity (ln)” value is 7.24. The figure for “ATAAAATATATGAAGACACACATAACATCATATTTT [CACACA_site3144]” is 6.87; for “AACCGGGCCTAAGATGTAATGCCTTAGCCTATAAAA [CACACA_negctrl_site479]” it is 6.3; for “CATAATATGACATACACACACAAAAAAAAAAAAATA [CACACA_site1285]” it is 7.02. Under “TTTATATTAAAATATTGTACGGACATTATTTTGTAA [XGTACX_site8128]” stands 6.8. For “AAAGATAAAAAAAGTACACACACACCGATATATATA [CACACA_site9006]”, the “gcPBM binding intensity (ln)” value was found to be 7.55. Under “CACGAACACAAACACAAACACACATCATATATATAT [CACACA_site1322]” stands 9.04; under ACTTTAACCTGAACGGTGCATAAAATTTTGGCATTA, 10.8.

On to “AATATATATAAAAAGGGAAAAATATATAAATAGATA [XGTACX_negctrl_site52]”, for which the “gcPBM binding intensity (ln)” value is 6.77. Under “AAAAAATTGACTAATGCACACAATTACAGATATATA [CACACA_site5010]” stands 8.06; under “TCGTGCATAAATCATACACACACACCGATATATATA [CACACA_site8767]”, 8.41; under “TCACAATTTTTTAGTACACACATATAAATATATAAA [CACACA_site1537]”, 7.33.

Consider “TTTGTATCCTTTTTGACATGCAACCATTCGGGTACA [TGCATGCA_site506]”, for which the “gcPBM binding intensity (ln)” value stood at 6.86. Take “AAAAAAAAAAAAAACGCACACATTTTTACAATTCTA [CACACA_site3271]”: the “gcPBM binding intensity (ln)” value turned out to be 7.61. The figure for “TTTCATTAATCTAATAGTACAGAAAATTGAGAAAAA [XGTACX_site8395]” is 7.33; for “TCTATTAATTAATATACACACATTATGTATATATAT [CACACA_site2541]” it is 7.37. Under “GTATACAAACATATAAATATAAATGTATTATTTGTT [CACACA_negctrl_site756]” stands 6.67; under “ATATGCATAAAAAGAGGTACACATAAAATATATATA [XGTACX_site5864]”, 7.42.
